Values of other authors, collected in PubChem BioAssay AID1259409 (Chemical Carcinogenesis Research Information System (CCRIS), 2018).
The source gives many values for each of these; only a part stands here.

Tested on: rodent chemically induced tumor inhibition, incidence and multiplicity
Experiment: CCRIS tumor inhibitor studies
Settings: Species: RAT, Promoter: NONE USED
Text: The CCRIS database contains chemical records with carcinogenicity, mutagenicity, tumor promotion, and tumor inhibition test results. It was developed by the National Cancer Institute (NCI). Data are derived from studies cited in primary journals, current awareness tools, NCI reports, and other sources. Test results have been reviewed by experts in carcinogenesis and mutagenesis.
CCRIS provides historical information from the years 1985 - 2011. It is no longer updated.
This is an archive assay for CCRIS tumor inhibitor studies.

O=[Se](O)O
tumour outcome (control, treated, inhibition, significance) (Carcinogen: 1,2-DIMETHYLHYDRAZINE DIHYDROCHLORIDE, 306-37-6, Carcinogen: 1,2-DIMETHYLHYDRAZINE DIHYDROCHLORIDE, 306-37-6, Dose [Inhibitor]: 4 PPM IN DRINKING WATER DAILY FOR 13 WK PRIOR TO CARCINOGEN TREATMENT (STUDY DURATION: 43-53 WK), Dose [Inhibitor]: 4 PPM IN DRINKING WATER DAILY FOR 13 WK PRIOR TO CARCINOGEN TREATMENT (STUDY DURATION: 43-53 WK), Route [Inhibitor]: ORAL, Strain/Sex: SPRAGUE-DAWLEY/MALE, VILLOUS ADENOMA, Target Tissue: Type of Lesion: COLON: ADENOCARCINOMA, VILLOUS ADENOMA, Dose [Carcinogen]: 20 MG/KG BW 1/WK FOR 20 WK): 29/32 (91%), 61/72 (85%), 7%, not calculated | tumour outcome (control, treated, inhibition, significance) (Carcinogen: 1,2-DIMETHYLHYDRAZINE DIHYDROCHLORIDE, 306-37-6, Carcinogen: 1,2-DIMETHYLHYDRAZINE DIHYDROCHLORIDE, 306-37-6, Dose [Inhibitor]: 4 PPM IN DRINKING WATER DAILY FOR 33 WK STARTING 13 WK PRIOR TO CARCINOGEN TREATMENT AND CONTINUING FOR 20 WK DURING CAR, Dose [Inhibitor]: 4 PPM IN DRINKING WATER DAILY FOR 33 WK STARTING 13 WK PRIOR TO CARCINOGEN TREATMENT AND CONTINUING FOR 20 WK DURING CAR, Route [Inhibitor]: ORAL, Strain/Sex: SPRAGUE-DAWLEY/MALE, VILLOUS ADENOMA, Target Tissue: Type of Lesion: COLON: ADENOCARCINOMA, VILLOUS ADENOMA, Dose [Carcinogen]: 20 MG/KG BW 1/WK FOR 20 WK): 29/32 (91%), 62/68 (91%), 0%, not calculated | tumour outcome (control, treated, inhibition, significance) (Carcinogen: 1,2-DIMETHYLHYDRAZINE DIHYDROCHLORIDE, 306-37-6, Carcinogen: 1,2-DIMETHYLHYDRAZINE DIHYDROCHLORIDE, 306-37-6, Dose [Inhibitor]: 4 PPM IN DRINKING WATER DAILY STARTING SIMULTANEOUSLY WITH CARCINOGEN TREATMENT AND CONTINUING FOR DURATION OF STUDY (ST, Dose [Inhibitor]: 4 PPM IN DRINKING WATER DAILY STARTING SIMULTANEOUSLY WITH CARCINOGEN TREATMENT AND CONTINUING FOR DURATION OF STUDY (ST, Route [Inhibitor]: ORAL, Strain/Sex: SPRAGUE-DAWLEY/MALE, VILLOUS ADENOMA, Target Tissue: Type of Lesion: COLON: ADENOCARCINOMA, VILLOUS ADENOMA, Dose [Carcinogen]: 20 MG/KG BW 1/WK FOR 20 WK): 29/32 (91%), 59/68 (87%), 4%, not calculated | tumour outcome (control, treated, inhibition, significance) (Carcinogen: 3'-METHYL-4-DIMETHYLAMINOAZOBENZENE, 55-80-1, Carcinogen: 3'-METHYL-4-DIMETHYLAMINOAZOBENZENE, 55-80-1, Dose [Inhibitor]: 5 PPM IN DIET DAILY FOR 4 WK STARTING 4 WK AFTER COMPLETION OF THE FIRST 4 WK OF CARCINOGEN TREATMENT (STUDY DURATION: 2, Dose [Inhibitor]: 5 PPM IN DIET DAILY FOR 4 WK STARTING 4 WK AFTER COMPLETION OF THE FIRST 4 WK OF CARCINOGEN TREATMENT (STUDY DURATION: 2, Route [Inhibitor]: ORAL, Target Tissue: Type of Lesion: LIVER: TUMOR, Dose [Carcinogen]: 0.064% IN DIET FOR 4 WK THEN A 4 WK CARCINOGEN-FREE PERIOD FOLLOWED BY 0.048% FOR AN ADDITIONAL 4 WK): 4/10 (40%), 2/9 (22%), 45%, not calculated | tumour outcome (control, treated, inhibition, significance) (Carcinogen: 3'-METHYL-4-DIMETHYLAMINOAZOBENZENE, 55-80-1, Carcinogen: 3'-METHYL-4-DIMETHYLAMINOAZOBENZENE, 55-80-1, Dose [Inhibitor]: 5 PPM IN DIET DAILY FOR 4 WK STARTING AFTER COMPLETION OF THE FIRST 4 WK OF CARCINOGEN TREATMENT (STUDY DURATION: 20 WK), Dose [Inhibitor]: 5 PPM IN DIET DAILY FOR 4 WK STARTING AFTER COMPLETION OF THE FIRST 4 WK OF CARCINOGEN TREATMENT (STUDY DURATION: 20 WK), Route [Inhibitor]: ORAL, Target Tissue: Type of Lesion: LIVER: TUMOR, Dose [Carcinogen]: 0.064% IN DIET DAILY FOR 4 WK BEFORE AND ANOTHER 4 WK AFTER AGENT TREATMENT): 8/13 (62%), 4/13 (31%), 50%, not calculated | tumour outcome (control, treated, inhibition, significance) (Carcinogen: 7,12-DIMETHYLBENZ[A]ANTHRACENE, 57-97-6, Carcinogen: 7,12-DIMETHYLBENZ[A]ANTHRACENE, 57-97-6, Dose [Inhibitor]: 0.15 UG/G OF A TORULA YEAST DIET DAILY FOR 36 D STARTING 22 D BEFORE CARCINOGEN TREATMENT FOLLOWED BY 0.21 UG/G OF A PUR, Dose [Inhibitor]: 0.15 UG/G OF A TORULA YEAST DIET DAILY FOR 36 D STARTING 22 D BEFORE CARCINOGEN TREATMENT FOLLOWED BY 0.21 UG/G OF A PUR, Route [Inhibitor]: ORAL, Strain/Sex: SPRAGUE-DAWLEY/FEMALE, Target Tissue: Type of Lesion: MAMMARY GLAND: CARCINOMA, Dose [Carcinogen]: 7.5 MG IN 1 ML SESAME OIL ONCE AT 50 D OF AGE): 20/25 (80%), 22/24 (92%), -15%, not significant | tumour outcome (control, treated, inhibition, significance) (Carcinogen: 7,12-DIMETHYLBENZ[A]ANTHRACENE, 57-97-6, Carcinogen: 7,12-DIMETHYLBENZ[A]ANTHRACENE, 57-97-6, Dose [Inhibitor]: 0.15 UG/G OF A TORULA YEAST DIET DAILY FOR 36 D STARTING 22 D BEFORE CARCINOGEN TREATMENT FOLLOWED BY 0.21 UG/G OF A PUR, Dose [Inhibitor]: 0.15 UG/G OF A TORULA YEAST DIET DAILY FOR 36 D STARTING 22 D BEFORE CARCINOGEN TREATMENT FOLLOWED BY 0.21 UG/G OF A PUR, Route [Inhibitor]: ORAL, Strain/Sex: SPRAGUE-DAWLEY/FEMALE, Target Tissue: Type of Lesion: MAMMARY GLAND: CARCINOMA, Dose [Carcinogen]: 15 MG IN 1.0 ML SESAME OIL ONCE AT 50 D OF AGE): 17/17 (100%), 18/19 (95%), 5%, not significant
